{"source": "PubChem BioAssay (NCATS)", "key": {"[1]": {"assay": "qHTS of pediatric cancer cell lines to identify multiple opportunities for drug repurposing: Primary screen for NB1643 cells (AID 1347099); note: potency is the fitted concentration of half-maximal effect; nearly all actives have a fitted effect of over 50% in size", "conditions": "NB1643 neuroblastoma viability, CellTiter-Glo luminescence, 48 h; series mostly up to 46 µM", "in_short": "(§1)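 Cells seeded at 500-1,000 cells/well in growth media, rested 5 hours at 37 degrees C, 5% CO2, then dosed; MIPE compounds at 11-point (from 0.78 nM) and NPC at 8-point (from 0.59 nM) final concentrations. Viability by CellTiter-Glo luminescence after 48 hours.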"}, "[2]": {"assay": "qHTS of pediatric cancer cell lines to identify multiple opportunities for drug repurposing: Primary screen for BT-12 cells (AID 1347101)", "conditions": "BT-12 viability, CellTiter-Glo luminescence, 48 h; series mostly up to 57.3 µM", "in_short": "(§2)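 Cells (500-1,000/well) rested 5 h, then received compounds for 48 h; metabolically active cells were measured by CellTiter-Glo luminescence. Final concentrations spanned up to 46 µM (MIPE, 11-point) or 0.59 nM-46 µM (NPC, 8-point) in primary screens, 11-point in follow-ups.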"}, "[3]": {"assay": "qHTS of pediatric cancer cell lines to identify multiple opportunities for drug repurposing: Primary screen for Rh18 cells (AID 1347102)", "conditions": "Rh18 rhabdomyosarcoma viability, CellTiter-Glo luminescence, 48 h; series mostly up to 46 µM", "in_short": "(§3)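 Cells (500-1,000/well) in growth media were settled 5 h at 37 degrees C, then given compounds for 48 h. Viability was read as CellTiter-Glo luminescence. Primary runs used MIPE at 11 points (0.78 nM-46 µM) and NPC at 8 points (0.59 nM-46 µM); follow-ups used 11 points.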"}, "[4]": {"assay": "qHTS of pediatric cancer cell lines to identify multiple opportunities for drug repurposing: Primary screen for RD cells (AID 1347104)", "conditions": "RD rhabdomyosarcoma viability, CellTiter-Glo luminescence, 48 h; series mostly up to 46 µM", "in_short": "as §1"}, "[5]": {"assay": "qHTS of pediatric cancer cell lines to identify multiple opportunities for drug repurposing: Primary screen for SK-N-SH cells (AID 1347098)", "conditions": "SK-N-SH viability, CellTiter-Glo luminescence, 48 h; activity change, negative = cytotoxic: at 57 µM (top of the series)", "in_short": "as §2"}, "[6]": {"assay": "qHTS of pediatric cancer cell lines to identify multiple opportunities for drug repurposing: Primary screen for OHS-50 cells (AID 1347103)", "conditions": "OHS-50 osteosarcoma viability, CellTiter-Glo luminescence, 48 h; series mostly up to 57.3 µM", "in_short": "as §2"}, "[7]": {"assay": "qHTS of pediatric cancer cell lines to identify multiple opportunities for drug repurposing: Primary screen for LAN-5 cells (AID 1347100)", "conditions": "LAN-5 neuroblastoma viability, CellTiter-Glo luminescence, 48 h; activity change, negative = cytotoxic: at 46 µM (top of the series)", "in_short": "as §3"}}, "note": "Inconclusive results, whose numbers are uncertain, are shown with a selection of clear calls. For some assays here: No potency is given beside an inconclusive call; the fits are too rough. Activity calls are given as the source filed them. Calls come from the whole dose curve; as a rule, active = well fitted curve in the direction sought with a large enough effect; inconclusive = small, poorly fitted or top-dose-only effect, or another doubt; inactive = no such curve, though single readings can be large; an effect the other way counts as inactive or inconclusive. Tags give direction and shape of the fitted curve."}
{"smiles": "NC12CC3CC(CC(C3)C1)C2", "values": [{"measurement": "Potency", "setting": "[1]", "value": "inconclusive [cytotoxic, full curve]"}, {"measurement": "Potency", "setting": "[2]", "value": "inconclusive [cytotoxic, single point]"}, {"measurement": "Potency", "setting": "[3]", "value": "inactive"}, {"measurement": "Potency", "setting": "[4]", "value": "inconclusive [cytotoxic, partial curve]"}]}
{"smiles": "CNS(=O)(=O)Cc1ccc2[nH]cc(CCN(C)C)c2c1", "values": [{"measurement": "Potency", "setting": "[5]", "value": "inconclusive [cytotoxic, full curve, poor fit]"}, {"measurement": "Potency", "setting": "[6]", "value": "inactive"}]}
{"smiles": "CN1CCN(Cc2ccc(NC(=O)Nc3ccc(Oc4cc(NC(=O)C5CC5)ncn4)cc3)cc2C(F)(F)F)CC1", "values": [{"measurement": "Potency", "setting": "[1]", "value": "active: 0.526 µM"}]}
{"smiles": "CN[C@@H]1[C@@H](O)[C@@H](O[C@@H]2[C@@H](O)[C@H](O[C@H]3O[C@H](CN)[C@@H](O)[C@H](O)[C@@H]3O)[C@@H](N)C[C@@H]2NC(=O)[C@@H](O)CN)OC[C@]1(C)O", "values": [{"measurement": "Potency", "setting": "[5]", "value": "inconclusive [cytotoxic, single point]"}, {"measurement": "Potency", "setting": "[3]", "value": "inactive"}]}
{"smiles": "CCC(=O)N[C@H]1CC[C@H](C(=O)N(C)c2ccc(-c3nc4ccccc4o3)cc2)C1", "values": [{"measurement": "Potency", "setting": "[1]", "value": "active: 1.66 µM"}, {"measurement": "Potency", "setting": "[7]", "value": "inconclusive [cytotoxic, single point]"}, {"measurement": "Potency", "setting": "[2]", "value": "inconclusive [cytotoxic, partial curve]"}]}
{"smiles": "CC(C)(C)NCC(O)c1ccc(O)c(CO)c1", "note": "(centres undefined)", "values": [{"measurement": "Potency", "setting": "[5]", "value": "inactive"}, {"measurement": "Potency", "setting": "[2]", "value": "inactive"}]}
{"smiles": "O=c1ccn([C@@H]2O[C@H](CO)[C@H](O)[C@H]2O)c(=O)[nH]1", "values": [{"measurement": "Potency", "setting": "[1]", "value": "inconclusive [cytotoxic, partial curve, poor fit]"}]}
{"smiles": "NCCS(=O)(=O)O", "values": [{"measurement": "Potency", "setting": "[1]", "value": "inconclusive [cytotoxic, partial curve, poor fit]"}, {"measurement": "Potency", "setting": "[2]", "value": "inactive"}]}
{"smiles": "CCCCCCCCCC(=O)N[C@@H](Cc1c[nH]c2ccccc12)C(=O)N[C@H](CC(N)=O)C(=O)N[C@@H](CC(=O)O)C(=O)N[C@@H]1C(=O)NCC(=O)N[C@@H](CCCN)C(=O)N[C@@H](CC(=O)O)C(=O)N[C@H](C)C(=O)N[C@@H](CC(=O)O)C(=O)NCC(=O)N[C@H](CO)C(=O)N[C@@H]([C@@H](C)CC(=O)O)C(=O)N[C@@H](CC(=O)c2ccccc2N)C(=O)O[C@@H]1C", "values": [{"measurement": "Potency", "setting": "[5]", "value": "inactive"}, {"measurement": "Potency", "setting": "[3]", "value": "inactive"}]}
{"smiles": "O=C1NC(=O)C(=Cc2cccc(C(F)(F)F)c2)S1", "values": [{"measurement": "Potency", "setting": "[1]", "value": "inconclusive [cytotoxic, single point]"}, {"measurement": "Potency", "setting": "[2]", "value": "inconclusive [cytotoxic, partial curve]"}, {"measurement": "Potency", "setting": "[6]", "value": "inconclusive [cytotoxic, single point]"}]}
{"smiles": "CCOC(=O)Nc1ccc(NCc2ccc(F)cc2)nc1N", "values": [{"measurement": "Potency", "setting": "[5]", "value": "inconclusive [cytotoxic, partial curve]"}, {"measurement": "Potency", "setting": "[6]", "value": "inactive"}]}
{"smiles": "CN(C)Cc1cccc(N=C(c2ccccc2)c2c(O)[nH]c3cc(C(=O)N(C)C)ccc23)c1", "values": [{"measurement": "Potency", "setting": "[1]", "value": "inconclusive [cytotoxic, partial curve]"}, {"measurement": "Potency", "setting": "[7]", "value": "inconclusive [cytotoxic, partial curve, poor fit]"}, {"measurement": "Potency", "setting": "[2]", "value": "active: 6.85 µM"}, {"measurement": "Potency", "setting": "[6]", "value": "active: 17.2 µM"}, {"measurement": "Potency", "setting": "[4]", "value": "inconclusive [cytotoxic, partial curve]"}]}
